Source: patent US7410975B2, “Small molecule toll-like receptor (TLR) antagonists” (Coley Pharmaceutical Group, Inc., priority 2003, dated 2008)
Counter-ions that a name gives are not always drawn.

Target: T1, human TLR9 (hTLR9) (Homo sapiens, UniProt Q9NR96)
T1 construct: expressed in transfected cells
T1 sequence (Q9NR96 26-1032): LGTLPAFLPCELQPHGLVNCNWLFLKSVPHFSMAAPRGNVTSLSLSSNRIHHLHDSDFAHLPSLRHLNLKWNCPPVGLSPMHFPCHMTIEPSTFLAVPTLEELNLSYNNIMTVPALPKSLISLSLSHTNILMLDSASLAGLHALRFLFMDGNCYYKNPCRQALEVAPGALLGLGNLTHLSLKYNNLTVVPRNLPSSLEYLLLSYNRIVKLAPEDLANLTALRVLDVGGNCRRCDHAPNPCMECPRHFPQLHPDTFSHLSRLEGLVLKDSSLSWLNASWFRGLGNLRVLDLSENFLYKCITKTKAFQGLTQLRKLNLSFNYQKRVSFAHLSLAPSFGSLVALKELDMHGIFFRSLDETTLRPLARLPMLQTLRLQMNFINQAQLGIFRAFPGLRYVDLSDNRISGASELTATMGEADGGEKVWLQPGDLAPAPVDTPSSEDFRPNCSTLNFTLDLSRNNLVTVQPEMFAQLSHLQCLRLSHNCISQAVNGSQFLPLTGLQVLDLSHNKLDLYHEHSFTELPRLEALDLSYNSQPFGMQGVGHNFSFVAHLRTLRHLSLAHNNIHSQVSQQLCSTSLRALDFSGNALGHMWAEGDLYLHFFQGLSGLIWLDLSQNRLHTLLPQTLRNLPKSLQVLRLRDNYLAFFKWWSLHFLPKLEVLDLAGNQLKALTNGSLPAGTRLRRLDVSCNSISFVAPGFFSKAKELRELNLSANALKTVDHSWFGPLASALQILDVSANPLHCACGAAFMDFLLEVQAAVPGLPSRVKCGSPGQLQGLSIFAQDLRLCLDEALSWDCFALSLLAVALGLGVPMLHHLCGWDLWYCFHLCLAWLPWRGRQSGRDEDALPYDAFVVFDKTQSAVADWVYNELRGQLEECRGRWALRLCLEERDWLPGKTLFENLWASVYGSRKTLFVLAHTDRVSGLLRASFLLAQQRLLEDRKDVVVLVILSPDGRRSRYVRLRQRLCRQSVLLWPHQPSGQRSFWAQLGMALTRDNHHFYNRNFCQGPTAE
Test: Antagonist screen, hTLR9-NFκB-293 cells, 6× NF-κB-luciferase reporter, with EC50 of CpG ODN 2006
Format: cell-based
Conditions: compound at 0.5, 5, 50 μg/ml, EC50 concentration of CpG ODN 2006, 16 h
Experimental: Candidate small molecules for initial screening were obtained from a commercially available library of 880 off-patent small molecules selected for structural diversity and proven bioavailability in humans (Prestwick Chemical Library). […] Results were measured as fold induction over baseline luciferase activity measured in the absence of ODN 2006 and compared to fold induction over baseline in the presence of the EC50 concentration of ODN 2006 alone. From this initial screening a number of small molecules were identified as lead compounds and were categorized by structure and activity. Additional screening was performed in like manner using additional small molecules selected from another library or specifically prepared for this purpose.
The method is described in greater detail as follows. The cells for each individual cell clone (hTLR3-NFκB-293, hTLR7-NFκB-293, hTLR8-NFκB-293 and hTLR9-NFκB-293) were counted and seeded one day before the stimulation at 1.5×10^4 cells per well in 96-well cell culture plates. To become adherent the cells were incubated after seeding overnight at 37° C. in 5% CO2 humidified air.
The screen for each compound was performed at the same time for all of the receptors TLR3, TLR7, TLR8 and TLR9. […]
For each screen result a graphical documentation was performed. A numerical score, describing the graphical results, was determined for each compound. […]
The baseline result (measured with addition of the EC50 concentration of the receptor-specific ligand) for each cell culture plate was measured as described above. Antagonistic effects were measured by down regulation compared to the baseline. Antagonists were scored as follows: • 13: compounds for which there was clear down regulation at 0.5 μg/ml, 5 μg/ml, and 50 μg/ml; • 12: compounds for which there was clear down regulation at 5 μg/ml and 50 μg/ml; • 11: compounds for which there was clear down regulation only at 50 μg/ml; • —: compounds for which there was no clear down regulation even at 50 μg/ml. […]

SMILES | hTLR9 (inhibitory effect, antagonist score)
CN1CCC[C@@H]1CCO[C@](C)(c1ccccc1)c1ccc(Cl)cc1.O=C(O)/C=C/C(=O)O [compound 306, Clemastine fumarate] | 11 (compounds for which there was clear down regulation only at 50 μg/ml)
Cc1ccccc1C(OCCN(C)C)c1ccccc1 (stereo not drawn) [compound 239, Orphenadrinehydrochloride] | 13 (compounds for which there was clear down regulation at 0.5 μg/ml, 5 μg/ml, and 50 μg/ml)
CN1CCN2c3ccccc3Cc3ccccc3C2C1.Cl (stereo not drawn) [compound 99, Mianserinehydrochloride] | — (compounds for which there was no clear down regulation even at 50 μg/ml)
